In one assay the test system is HSkMC. Description: cytotoxicity call (relative viability < 0.9). The note with it: 10 µM.
A further assay has as its system S. aureus RN4220. Description: growth inhibition call (relative growth <= 0.2). The settings on record: 50 µM.

Some of the results follow.

As for `C[C@@H]1CCCCO[C@H](CN(C)C(=O)Nc2ccc(C(F)(F)F)cc2)[C@H](C)CN([C@H](C)CO)C(=O)c2cc(NC(=O)Nc3ccccc3)ccc2O1`, the cytotoxicity call in the assay with HSkMC was “inactive”. Further, the growth inhibition call with S. aureus RN4220 was “inactive”.
With `Cc1noc(C)c1NC(=O)Nc1ccc2c(c1)CC(=O)N([C@H](C)CO)C[C@@H](C)[C@@H](CN(C)Cc1ccc(-c3ccccc3)cc1)O2`, the cytotoxicity call with HSkMC was “inactive”. Also, the growth inhibition call in the assay with S. aureus RN4220 is “inactive”.
As for `C[C@@H]1CN([C@@H](C)CO)C(=O)c2cccc(NC(=O)Nc3ccc(C(F)(F)F)cc3)c2O[C@@H]1CN(C)C(=O)Nc1ccccc1`, the cytotoxicity call with HSkMC is “inactive”. Besides, in the assay with S. aureus RN4220, the growth inhibition call is “active”.
In the same order, the values of `COc1ccc(S(=O)(=O)Nc2ccc3c(c2)CC(=O)N([C@@H](C)CO)C[C@@H](C)[C@@H](CN(C)Cc2ccc(Oc4ccccc4)cc2)O3)cc1` are “inactive” and “inactive”.
Turning to `C[C@H](CO)N1C[C@H](C)[C@@H](CN(C)S(=O)(=O)c2cn(C)cn2)Oc2c(NC(=O)c3nc4ccccc4s3)cccc2C1=O`, the cytotoxicity call in the assay with HSkMC is “inactive”. Moreover, in the assay on S. aureus RN4220, the growth inhibition call is “inactive”.
Take `O=C(O)c1cc2ccc(O)c(=O)c-2c(O)c(O)c1`: the cytotoxicity call in the assay on HSkMC is “inactive”. In addition, the growth inhibition call with S. aureus RN4220 was “inactive”.
Turning to `O=C(O)c1cc2n(n1)CCC2`, the cytotoxicity call with HSkMC is “inactive”. Further, the growth inhibition call with S. aureus RN4220 was “inactive”.
With `C[C@H]1CCCCO[C@H](CN(C)C(=O)C2CCCCC2)[C@@H](C)CN([C@@H](C)CO)C(=O)c2cc(NC(=O)CCC(F)(F)F)ccc2O1`, the cytotoxicity call in the assay on HSkMC was “inactive”. In addition, the growth inhibition call in the assay with S. aureus RN4220 is “inactive”.
On to `Cc1noc(C)c1NC(=O)Nc1ccc2c(c1)C(=O)N([C@H](C)CO)C[C@H](C)[C@H](CN(C)CC1CCCCC1)OCCCC[C@@H](C)O2`, for which, in the assay on HSkMC, the cytotoxicity call was “inactive”. Also, the growth inhibition call in the assay with S. aureus RN4220 was “inactive”.
On to `C[C@H](CO)N1C[C@H](C)[C@H](CN(C)S(C)(=O)=O)Oc2ccc(NC(=O)Cn3cnnn3)cc2CC1=O`, for which the cytotoxicity call in the assay with HSkMC was “inactive”. Besides, the growth inhibition call in the assay on S. aureus RN4220 was “inactive”.
Turning to `C[C@@H]1CN([C@@H](C)CO)C(=O)c2cc(NS(=O)(=O)c3ccc(F)cc3)ccc2O[C@@H]1CN(C)S(=O)(=O)c1ccccc1`, the cytotoxicity call in the assay on HSkMC was “inactive”. The growth inhibition call in the assay with S. aureus RN4220 was “inactive”.
With `N[C@H]1CCCN(Cc2cccc(O)c2)C1`, in the assay on HSkMC, the cytotoxicity call was “inactive”. In addition, the growth inhibition call in the assay on S. aureus RN4220 is “inactive”.
Turning to `CCCN(C)C[C@H]1OCCCC[C@H](C)Oc2ccc(NC(=O)Nc3cccc4ccccc34)cc2C(=O)N([C@@H](C)CO)C[C@H]1C`, in the assay on HSkMC, the cytotoxicity call was “inactive”. In addition, the growth inhibition call in the assay with S. aureus RN4220 was “inactive”.
On to `COc1ccc(CN(C)C[C@H]2OCCCC[C@H](C)Oc3ccc(NS(=O)(=O)c4ccc(Cl)cc4)cc3C(=O)N([C@@H](C)CO)C[C@H]2C)cc1`, for which, in the assay on HSkMC, the cytotoxicity call was “inactive”. Moreover, the growth inhibition call in the assay with S. aureus RN4220 was “inactive”.
For the molecule `CC(C)NC(=O)Nc1cccc2c1O[C@@H](CN(C)Cc1ccc3c(c1)OCO3)[C@@H](C)CN([C@@H](C)CO)C2=O`, the cytotoxicity call with HSkMC is “inactive”. In the assay with S. aureus RN4220, the growth inhibition call was “inactive”.
On to `C[C@H](CO)N1C[C@H](C)[C@@H](CN(C)S(=O)(=O)c2cccc(F)c2)Oc2ncc(C#CC3CCCC3)cc2C1=O`, for which the cytotoxicity call in the assay with HSkMC was “inactive”. For the same molecule, in the assay with S. aureus RN4220, the growth inhibition call was “inactive”.
Take `C[C@@H]1CCCCO[C@H](CN(C)CC2CCCCC2)[C@@H](C)CN([C@H](C)CO)C(=O)c2cc(NC(=O)Nc3ccc4c(c3)OCO4)ccc2O1`: in the assay with HSkMC, the cytotoxicity call is “inactive”. Moreover, the growth inhibition call in the assay with S. aureus RN4220 was “inactive”.
For the molecule `CCOC(=O)c1c(CN2CCN(Cc3ccccc3)CC2)n(-c2ccccc2)c2cc(Br)c(O)cc12`, the cytotoxicity call with HSkMC is “inactive”. For the same molecule, in the assay with S. aureus RN4220, the growth inhibition call is “inactive”.
As to `CN1C(=O)c2cc(NC(=O)C3CCOCC3)ccc2OC[C@@H]2O[C@@H](CC(=O)NCCc3ccncc3)CC[C@@H]21`, the cytotoxicity call in the assay on HSkMC is “inactive”. Moreover, the growth inhibition call in the assay on S. aureus RN4220 is “inactive”.
Regarding `C[C@@H]1CCCCO[C@H](CN(C)C(=O)NC2CCCCC2)[C@@H](C)CN([C@H](C)CO)C(=O)c2cc(NC(=O)Nc3ccccc3)ccc2O1`, the cytotoxicity call in the assay on HSkMC was “inactive”. In the assay with S. aureus RN4220, the growth inhibition call is “inactive”.
For `N#Cc1ccc(CN)cc1`, in the assay on HSkMC (human skeletal muscle cells), the cytotoxicity call is “inactive”. Further, the growth inhibition call with S. aureus RN4220 is “inactive”.

The record behind these values is the antibiotic and cytotoxicity screens of Wong et al. (2023).
